Data from the supplement of paper PMC4604168 (melanoma cell lines).
This is one part of the list. Most values come without repeats; read them as rough.

tested on: UACC62; experiment: cell count relative to DMSO control; melanoma cells; higher = more viable cells; settings: library dose: low library concentration; 72 h
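Further: cell number obtained by counting DAPI-stained nuclei in high-throughput microscope images with image analysis software, screen run in 1,536-well plates.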

Structure (SMILES)	cell count [%]
CC1(C)CCC(c2ccc(Cl)cc2)=C(CN2CCN(c3ccc(C(=O)NS(=O)(=O)c4ccc(N[C@H](CCN5CCOCC5)CSc5ccccc5)c(S(=O)(=O)C(F)(F)F)c4)cc3)CC2)C1 + Nc1nc(F)nc2c1ncn2[C@@H]1O[C@H](CO)[C@@H](O)[C@@H]1O [fludarabine] (first compound 0.4 µM, partner dose 0.2 µM)	37.8
Cc1ccc(Nc2nccc(N(C)c3ccc4c(C)n(C)nc4c3)n2)cc1S(N)(=O)=O [Pazopanib] + Cc1nc(Nc2ncc(C(=O)Nc3c(C)cccc3Cl)s2)cc(N2CCN(CCO)CC2)n1 [dasatanib] (first compound 0.4 µM, partner dose 0.004 µM)	87.9
CC1(C)CCC(c2ccc(Cl)cc2)=C(CN2CCN(c3ccc(C(=O)NS(=O)(=O)c4ccc(N[C@H](CCN5CCOCC5)CSc5ccccc5)c(S(=O)(=O)C(F)(F)F)c4)cc3)CC2)C1 + Cn1c(Nc2ccc(C(F)(F)F)cc2)nc2cc(Oc3ccnc(-c4ncc(C(F)(F)F)[nH]4)c3)ccc21 [CHIR265] (first compound 0.4 µM, partner dose 0.08 µM)	46.7
CC1(C)CCC(c2ccc(Cl)cc2)=C(CN2CCN(c3ccc(C(=O)NS(=O)(=O)c4ccc(N[C@H](CCN5CCOCC5)CSc5ccccc5)c(S(=O)(=O)C(F)(F)F)c4)cc3)CC2)C1 + C=C(c1ccc(C(=O)O)cc1)c1cc2c(cc1C)C(C)(C)CCC2(C)C [Bexarotene] (first compound 0.4 µM, partner dose 2 µM)	88.9
